Laboratory results from the supplement of paper PMC11417369.
Some of the results follow.

tested on: PfSIP2 AP2 domain 1 (GST-tagged); experiment: gcPBM binding intensity (ln(normalized median fluorescence intensity)); higher = stronger DNA binding
Procedure, shortened: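 GST-fused DNA-binding domains of P. falciparum, expressed in E. coli, were applied at about 25 μg on average for 1 h to an Agilent 4 × 180k array of primer-extended double-stranded 36-bp intergenic genomic probes and negative controls. Binding intensity is the highest Masliner-normalised natural-log median intensity across replicate spots of either probe orientation, measured with Alexa488 anti-GST antibody and a 488 nm scan.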

Sequence	gcPBM binding intensity (ln)
AAACAGATAAATAAAAGTACACATTAAAAGGTAGCA [XGTACX_site4150]	6.87
GGATTTTAATGAACACGTACATAAAATTAAATAAAT [XGTACX_site7023]	6.97
TAATTAATTTCTTTACGTACATAATTAATATATATA [XGTACX_site7372]	7.24
GGGAGGATAGTTCACAGTACCCAGGAAATCTACGGA [XGTACX_site2553]	6.89
GGTTCATAATATGGTTGTACATAAATATATATATAT [XGTACX_site7583]	9.07
TAACAAGGTTTATATGCATGCAAACATAACCAAAAA [TGCATGCA_site824]	6.92
AATGGGTAAACATACACACACACATCTATATTTATA [CACACA_site7025]	6.77
TACTATATCATTTATTGTACAATATTTCTTCAGAAA [XGTACX_site1008]	7.12
CTTTGCCTTAAAAAGGAACACACATGCTTTTTTTAG [CACACA_site8219]	6.92
TATAAAAGACTAAATATTATAGAAATATAAATATAA [TGCATGCA_negctrl_site237]	6.66
TTTTTTTTTTTAAGTTCACACATAAATTCGATTTAC [CACACA_site5057]	6.9
ACCGTTTTTGTGTAATGTACAAAATTTCTGACAGTG [XGTACX_site4999]	7.15
ATAATTTGTAAAAGGAGTACAAAACCATACTTTTTT [XGTACX_site6076]	7.29
AAAGGAAAATTAAAAAGTACACATTTGAAAAAAAAA [XGTACX_site2724]	6.99
ATGTATTTAATAAGAACACACATATATTTAATTTAA [CACACA_site5606]	6.79
TTTATACATTTATATTGTACTAATTCGATTTTATAT [XGTACX_site5424]	6.97
AATGATCATATATACACACACACAAAAAAAAAAAAA [CACACA_site4009]	7
AAAGAAAAAGAAAAAGAAAAATTAGAATATAAAATA [CACACA_negctrl_site792]	6.3
ATAAGAAATGTAACTTGTACATAAGGATATATATTT [XGTACX_site236]	6.86
CATTTATATAAATACACACACACAAAAAAAAAAAAA [CACACA_site5459]	6.97
TAATAATAAAAAAATAGTACATAAATAAAAATAATA [XGTACX_site4774]	7.13
ATTTATAAAATTAATGCACACATCAGCATTTATAAA [CACACA_site1025]	7.22

Sequence	gcPBM binding intensity (ln)
TAAATACATAGATGTACACACATTACAGATGTACAT [CACACA_site4692]	7.09
TATAAAATAAAAAATAAATATCTATATATATATATA [TGCATGCA_negctrl_site351]	9.12
ATAAAGCACACCGACACACACATATTTATATTTATA [CACACA_site6620]	7.22
TTGTGTTATCCTTTTTTAGATCAACTATTTTTATTC [CACACA_negctrl_site145]	6.94
GTCCCTATAAGGGGAACACACATAAATGAATATATA [CACACA_site1024]	6.87
TTTTTTTGTTAAAAGGTGCTAATATATATAAGTGCT	9.03
TTATATATTTATATATGTACACATTTTACCATTTTT [XGTACX_site2142]	6.9
AAATTTATAAAGAACACACACATATAAATATAAATA [CACACA_site6174]	6.89
ATTTATTTCTTGTTAGTGCACTTTCTTTGGTAAAAT	11.1
TTAAAATGTTGTAACGTGCACATTTTGTGGAAATCA [GTGCAC_site9559]	8.55
TTATAATTGTAAGGTAGTACATATAAATCAAATAAT [XGTACX_site7190]	7.34
TATACAGATGGACACACACACATATATATATATATA [CACACA_site5272]	9.34
ATACAAACAATTATTTGTACATAAAATTTTTTTTTT [XGTACX_site90]	6.92
ATGAATCTTTTAAAAAGTACATGTGAAAAAAATAAA [XGTACX_site49]	7.22
ATATTTATATATTGCACACAAAAAAAAAAAAAAATC [CACACA_site1629]	7.6
TATATATATATGTAATGTACATAAATTTTATACCTT [XGTACX_site6991]	9.07
CAGTAGTATATACTATGTACATATTTATATTATATT [XGTACX_site4964]	7.07
TAATAAATAAAAATAGAACACACATATGTTTTTTTT [CACACA_site9185]	6.68
AATATAAATAAACACACACACATATATATATATATT [CACACA_site2906]	7.54
AAAAAAAAAAAAAAATGTACATATATATAAATAAAA [XGTACX_site5574]	7.35
TATATTCATAATATTACACACGTTCATTTATTTTAA [CACACA_site2031]	7.12
GAGTGAAATATGCAAACACACACGAGAAAAATGTAT [CACACA_site3196]	7.19

Sequence	gcPBM binding intensity (ln)
TATGGTTTTAAAAAATGTACGCAAGTGCGTTAATTT [XGTACX_site3945]	7.39
AACAACCAAACGCACACACACAAAAAAAAAAATATA [CACACA_site6326]	7.62
TTATATGCATAAAAAGGTACACATATATAAATAAAT [XGTACX_site6894]	7.12
ACATTTAAAATTTATGCATGTGGTGTTTTGTATATA [TGCATGCA_site534]	7.26
TTTGTGTAGGTGTGTAGTACATATAACTTATAACAT [XGTACX_site7885]	7.43
TAATAAAATGTACACGCATGCAATAGAATATAAAGT [TGCATGCA_site905]	7.66
TATATTAATTATAAGACACACATATAGTAATAGAAA [CACACA_site2056]	6.9
AATAAGAAAACAAATGCACACCATTTATATAGATTA [CACACA_site8261]	7.1
ATGGGTTAGGCGTGTACACAATTGTATGGTTTAATA [CACACA_site4812]	7.2
ACATATTTTTACTTTTGTACATATTTTTTAATTTTC [XGTACX_site640]	7.13
TTTATATATTTTTATCTTGATAATAATGTTTTAGAA [TGCATGCA_negctrl_site300]	6.57
GTATATTACATAAAATGTACATAAAAAGCGGAAAAG [XGTACX_site6905]	7.51
AAATATAATTAATGATGTACACTTATAGATATTGAT [XGTACX_site8435]	7.09
TATTCTCGTTCTCATACACACAAAATATACATACAC [CACACA_site7278]	7.43
GGGTTAATATTTACTACACACACTTAAAATATGTAT [CACACA_site47]	7.1
ATGTATTTTTAAAAATATAAATTATGTAACTTGTGA [XGTACX_negctrl_site620]	6.98
TACTGATATAATATAACCGTTTATGTGTATTTTTTA [XGTACX_negctrl_site81]	6.74
TATAATAAAATTTTTACACACTTTAAAAAAAAAAAA [CACACA_site524]	6.88
CGTGGAAAAAAAAACACACACAAAAAAAAAAAAAAA [CACACA_site3997]	6.96
TTCAAATATATGTTTTCACACACAAAAGAAATGAAA [CACACA_site8671]	7.04
TTTTCTCTAAAAAGGTGTACAACTAATAATGCACTG [XGTACX_site6074]	9.09
ATATATATATAATATTGTACGAAAAAAAATAAAAAA [XGTACX_site974]	8.84

Sequence	gcPBM binding intensity (ln)
TATTTTACTTTAAAAATGGAAAAAAAAAAGAATATT [CACACA_negctrl_site1360]	6.75
TTTTTTTTTTTTACATGTACATATGAATTATAATAT [XGTACX_site5016]	7.29
TTAATAAAACTAACACGTACACATATATAATATTAT [XGTACX_site3260]	7.13
ATTGTCATCATTATATGTACGTAAAAGAATATAGAT [XGTACX_site3117]	7.41
GAAAGAAGCATAAATGTACACACATATTTATATATT [CACACA_site8368]	7.04
TATGTTAAAAAAAAAAAAAAGAAAAAAATAAAAGGA [CACACA_negctrl_site119]	6.72
AAACAAATAGACACTTGTACGTAAGTAAATAATTAA [XGTACX_site6157]	6.9
AAGGGAAAAATATGGTTGCACTAAAAATATGTAATT [GTGCAC_site9605]	7.96
TTTCTATATAGATTTGCACACATAAAAATGCTTATA [CACACA_site2390]	7.18
CTTTATACATGACATAGTACCCATTTTAGATTTGAA [XGTACX_site5240]	6.9
TTTAAAAAAATGAAATAAAAAAAAAATAAAATAAAA [XGTACX_negctrl_site316]	6.87
ATATATATAATTTGTACACACAAATATGCATATATA [CACACA_site3432]	7.45
AAATAATTTATATATTGTACAAATATTAAATGCGAA [XGTACX_site3390]	7.58
AGATATTTTTCTTAAGTACACACTAAATAGAAACTA [CACACA_site44]	7.29
TTTTTTTTTTTCAGTTGTACATTGGGAAAATATATA [XGTACX_site4416]	7
AGTCTGAATAAAATTACACACATATACCTATAAATA [CACACA_site6929]	6.99
GAAAAAAAAAAAAAAAGAAAATTCATATTTTTAATA [XGTACX_negctrl_site513]	6.56
ACATTTATATATAATTGTACCCTACATTCTCTTTTT [XGTACX_site189]	6.95
AAAAATATATAAACACGTACACACACATATATGTAT [XGTACX_site7436]	7.33
TACCAAAAAAAAAAAAAAAATTAAATAAATATGAAA [TGCATGCA_negctrl_site383]	6.58
GGGTTGATATATATTTGTACATATTATTATTTATTA [XGTACX_site7116]	7.37
TTTATTTTAACTTGTTCACACATTTGAATAAATAAA [CACACA_site5064]	6.99
